# Laboratory results: ChEMBL document CHEMBL4888484, “Replenishing the malaria drug discovery pipeline: Screening and hit evaluation of the MMV Hit Generation Library 1 (HGL1) against asexual blood stage Plasmodium falciparum ,using a nano luciferase reporter read-out” (2022)
# The campaign covered roughly 150,000 compounds. About 540 (0.36%) showed an effect of 50% or more. Some of the results follow.
# System: Plasmodium falciparum
# Assay: Primary screen in NF54 nanoGlo assay, in single point, at 2uM, 72h; a lower Z score goes with more inhibition
# Type: functional, Erythrocyte
# Conditions: timepoint 72 hour
SMILES,% Inhibition [%],Z score
CC1(c2nc(Cc3cncs3)no2)CCC(=O)CC1,5,-0.78
O=C(Nc1ccc2c(c1)OCCO2)c1[nH]nnc1-c1ccc(F)cc1,11,-2.1
COC(=O)c1ccc(-c2noc(CN3CCCC[C@H](O)C3=O)n2)cc1,-9,1.24
Cc1cc(Br)ccc1NC(=O)C1CCN(c2cc(C(F)(F)F)ncn2)CC1,-1,0.07
OCC[C@H](NCC(F)(F)F)c1ccccc1,1,-0.18
Cc1nc(CN2CCC3(CC2)C[C@@H](c2ccccc2)C(=O)N(C2CC2)C3)no1,1,-0.09
COCCCN1CC(=O)N[C@@H]2CN(C(=O)CN(C)C)CC[C@@H]2OCc2cccc(c2)Oc2ccc(cc2OC)CCC1=O,1,-0.19
O=C1NCCN(C(=O)c2cnc(-c3cccnc3)nc2)[C@H]1Cc1ccccc1,-1,0.15
CN(CCO)C(=O)C(=O)Nc1cccc(CC(F)(F)F)c1,-11,2.21
CC1=C(c2ccccc2)[C@H]1C(=O)NCc1cc(C2CC2)[nH]n1,-3,0.54
CC(C)(CN1CCC(OCc2ccc(F)cc2)CC1)S(C)(=O)=O,1,-0.09
Cc1cccc(CN2CCN(c3nc(C)ccc3C#N)C[C@@H]2CCO)n1,-6,0.81
COC(=O)[C@H](C)N1CCn2nc(CCC(=O)NC3CCCC3)cc2C1,-2,0.44
O=C(NC[C@H]1COCCO1)c1cccc(NC(=O)c2nsc3ccccc23)c1,-8,1.37
CCC(c1ccccc1)S(=O)(=O)C(C)c1nnnn1C1CC1 (stereo not drawn),9,-1.35
O=C(Nc1cccc2c1C(=O)N(c1ccccc1)C2=O)c1ccccc1F,-12,1.68
COCc1nsc(NC(C)C2CCCO2)n1 (stereo not drawn),-9,1.64
O=C(CN1CCOc2cc(F)c(Br)cc21)N1CCC1,-11,1.66
COCC1(CNC(=O)[C@H](C)N(C)C2CCCCC2)CCC1,-9,1.64
CC(C)(C)c1ccn(C[C@H]2CCS(=O)(=O)C2)c(=O)c1,-6,1.19
CN1CCC(Oc2cc(NC(=O)c3cscn3)ccn2)CC1,-16,1.85

SMILES,% Inhibition [%],Z score
COc1ccc(CCC(=O)Nc2cc(OC)ncn2)cc1,-5,0.94
Cc1noc2ncnc(N3CCN(Cc4ccco4)C[C@H](O)C3)c12,-16,1.64
O=C(NC1CCC12CCCC2)C1CCn2ccnc2C1 (stereo not drawn),6,-1.17
O=C(CCc1cccs1)NC1CCCC1,13,-1.2
C=CCn1nc(C(=O)N(C)C)c2c1CC[C@H](N(CC)CCN(CC)CC)C2,-12,1.38
O=C(Nc1ccc(F)cc1)c1nscc1NCc1ccncc1,-5,0.84
CN1C2CCC1CN(c1nnc(-c3ccccc3)s1)CC2 (stereo not drawn),5,-0.74
OCC#Cc1ccc(-c2nccn2CCN2CCOCC2)s1,-7,1.33
CCCNc1ncc(CN2C[C@@H]3CC[C@H]2CN(Cc2ccccc2)C3)cn1,-10,1.63
CCc1nn(C)c(Cl)c1CN(C)C[C@H]1COCCO1,-19,2.05
Cc1cc(N2CC[C@H](OCc3csc(C)n3)C2)c2ccccc2n1,-43,5.02
CN(C)c1ccc(Br)c(S(=O)(=O)Nc2c(C#N)cnn2CCC#N)c1,-20,3.49
COC(=O)N1CC[C@H](Nc2cc(C#N)c3ccccc3n2)C1,-10,1.16
c1cncc(-c2nccn2-c2ccc(-c3nnn[nH]3)cc2)c1,-3,0.42
CCN(C(=O)C(C)OC(=O)C1Cc2ccccc2C(=O)O1)C1CCCCC1 (stereo not drawn),-1,0.19
CCc1onc(C)c1[C@@H]1CCCN1C(=O)c1nn(C)cc1Cl,-19,2.53
CCC1CN(C(=O)c2cnn3ccc(C)nc23)CC1N1CCOCC1 (stereo not drawn),4,-0.37
O=C(Cn1nc(COc2ccccc2)oc1=S)Nc1ccc2c(c1)OCO2,-42,4.87
CC1CCN(C(=O)C[C@@H](CN2Cc3ccccc3C2=O)c2ccc(Cl)cc2)CC1,0,0
COc1ccc(C(=O)N2CCC(F)(C(=O)NCC3CC3)CC2)cc1F,-12,1.49
CCc1nc(C)sc1CNC(=O)[C@H]1CCCN(C(C)C)C1,-13,1.35

SMILES,% Inhibition [%],Z score
CN(C)[C@@H](CNC(=O)c1ccc2c(c1)OCCO2)c1ccsc1,-9,1.11
CN1CCN([C@H]2CCN(Cc3cc4ccccc4o3)C2)CC1,-2,0.39
Cc1ncn(CC2CCN(S(=O)(=O)c3ccc4c(c3)CCO4)CC2)c(=O)c1C,-5,0.68
Cc1nc(NC(=O)NCc2cc(C(F)F)on2)nn1C,-6,0.79
Cn1nc(-c2ccccn2)c2[nH]c(-c3cccc(Cl)c3)nc21,-9,1.17
CC(C)[C@@H]1CN(C(=O)Nc2ccc3c(c2)OC2(CCCCC2)O3)CCO1,-5,0.59
Cc1ccc2sc(N(Cc3ccccn3)C(=O)CN3C(=O)CCC3=O)nc2c1C,-18,2.32
Cc1cnc(CN2C[C@]3(CCCN(C(=O)c4ccc(O)cc4)C3)CCC2=O)cn1,-8,1.21
Cc1cc(C)cc(NC(=O)Nc2ccc3nc4n(c(=O)c3c2)CCCC4)c1,2,-0.22
CCOc1c(Cl)cc(NC(=O)N[C@H]2CCO[C@@H]2c2ccncc2)cc1Cl,11,-1.27
Cc1ncsc1CCN1CCC(C(=O)N(C)c2ccccc2)CC1,-5,0.52
CCOc1ccc(NC(=O)N2CC[C@@]3(C2)C(=O)N(C)c2ccccc23)cc1,-7,0.89
Cc1ccc(C(=O)N2CCN(C(=O)CN3C(=O)CCC3=O)CC2)c(O)c1,-4,0.54
CC(C)CCNC(=O)CCn1cncn1,-7,0.79
CN(C[C@H]1Cc2ccccc2CO1)C(=O)c1nc2ccccc2s1,2,-0.28
O=C(Nc1cccnc1)N[C@H]1CO[C@@H](CN2CCC(F)(F)CC2)[C@@H]1O,3,-0.55
O=C(NCc1ccccc1F)C1CCN(c2cncnc2N2CCCCC2)CC1,-1,0.12
COc1cc(-c2cc(-c3ccc(N(C)C)nc3)c(C#N)c(N)n2)ccc1O,1,-0.06
COC(=O)c1ccc(S(=O)(=O)N2CC(c3ccccn3)C2)n1C,-13,2.62
c1nn(Cc2nnc3n2CCCC3)cc1Nc1nc(C2CC2)ns1,-6,1.11
CC(=O)NC[C@@H]1C[C@H](F)CN1S(=O)(=O)c1c(C)nn(C)c1Cl,-7,1.34

SMILES,% Inhibition [%],Z score
Cc1cnc(C)c(NCC[C@H]2CCCOC2)n1,-1,0.09
O=C(Nc1ccccc1N1CCCC1=O)c1cc(Cl)cc(Cl)c1,-8,1.13
O=S1(=O)CC(C2CN(c3cc(C4CC4)nc(C4CC4)n3)C2)C1,-5,0.92
Cc1ccc(C(=O)N2CCC([C@H](NC(=O)CC(C)C)C(=O)N3CCCCC3)CC2)cc1,-8,0.97
CCOC(=O)N1CCC(n2ccnc2-c2nccn2C(C)C)CC1,-11,1.32
CN(C)c1ccc([C@H]2C[C@@H]2C(=O)O)cc1,1,-0.18
O=C(c1nc2ccc(Cl)cn2c1CNC1(c2ccccc2)CC1)N1CCCCCCC1,-8,1.12
Cc1cc(CN2CCCN(C(=O)c3scnc3C)CC2)c(C)s1,-12,1.39
N#Cc1ccc(N2CCC[C@@H]2CO)c(F)c1,-12,2.35
C[C@@H](C(=O)NCC1(O)CCC(C)(C)CC1)c1cncnc1,-7,0.65
COc1cc(OC)c(NC(=O)CCNC(=O)Cn2cnc3ccccc3c2=O)cc1Cl,6,-0.68
O=C(N[C@H]1CC(=O)N(c2ccc3c(c2)OCCO3)C1)C1CCCCC1,-8,1.53
COc1cccc(N2CCN(CC(=O)Nc3ccn(C)n3)[C@@H](C)C2=O)c1,-14,2.11
Cc1cc(C)nc(Nc2cccc(NC(=O)COc3ccc(Cl)cc3)c2)n1,-13,1.68
CC(C)c1cc(C(=O)N2CCc3ccccc3C2)no1,-1,0.08
Nc1cc(N2CCn3nc(CNC(=O)C4CCCC4)cc3C2)nc(N)n1,-6,0.81
Cc1c(C(=O)N2CCCCCC2)c(S(=O)(=O)N(C(C)C)C2CCCCC2)c(C)n1C,-11,2.03
CCN(CC)S(=O)(=O)NCc1ccc(OC)c(OC)c1,10,-1.29
CC1CCN(C(=O)c2cccc(-c3ccc(Oc4ccc(N)cn4)cc3)c2)CC1,-19,2.6
CCOc1ccc(N([C@@H](C)C(=O)Nc2ccccc2C(=O)NCc2ccco2)S(C)(=O)=O)cc1,-15,1.76
Cc1nnc(NC(=O)NCc2ccc(N3CCCCC3)nc2)s1,9,-1.15
